This is one part of the list.
Molecular target: T1, MBP-FoxP1dN (Mus musculus, UniProt P58462 326-579)
T1 sequence: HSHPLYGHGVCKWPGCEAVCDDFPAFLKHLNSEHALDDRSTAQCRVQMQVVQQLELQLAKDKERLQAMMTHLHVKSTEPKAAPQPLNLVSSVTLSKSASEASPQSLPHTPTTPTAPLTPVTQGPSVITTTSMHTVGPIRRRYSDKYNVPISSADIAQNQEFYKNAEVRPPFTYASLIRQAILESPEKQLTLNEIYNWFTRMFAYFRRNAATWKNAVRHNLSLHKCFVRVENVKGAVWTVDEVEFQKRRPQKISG
Assay: PD-seq (MBP pull-down with sequencing); 20 mM Tris-HCl pH 7.5, 100 mM NaCl, 1.5 mM MgCl2, 0.4 uM protein, 0.1 uM dsDNA library, 30 min, room temperature, amylose pull-down; high values mean tight binding
Conditions: protein: recombinant; tags: His6-MBP; chain copies: 2; dsDNA, one strand shown
Outline: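 Protein and DNA were mixed at 0.4 µM and 0.1 µM and held for 30 min at room temperature in Tris pH 7.5 buffer with NaCl and MgCl2; the protein was a His6-MBP-tagged, N-terminally truncated mouse FoxP3 or FoxP1 fragment from E. coli, and the DNA a Klenow-filled double-stranded degenerate library. Amylose resin captured the complexes, which were washed three times. Binding is read as reads-per-million enrichment of pull-down versus input after Illumina sequencing, with replicates pooled.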

Going from “GATGATTGTTCTCCCAGCTGATGAATTGCGGCGCTCGAGTAAACAAATTTTCCTAATCTTTCTGTTCAAGCGCCATCTAC” to “GATGATTGTTCTCCCAGCTGATGAATTCATCCTCTCGAGTAAACAAATTTTCCTAATCTTTCTGTTCAAGCGCCATCTAC”, the binding signal falls from 0.969 RPM ratio (pull-down/input) to 0.839 RPM ratio (pull-down/input).

First: GATGATTGTTCTCCCAGCTGATGAATTATGTCGCTCGAGTAAACAAATTTTCCTAATCTTTCTGTTCAAGCGCCATCTAC
Second: GATGATTGTTCTCCCAGCTGATGAATTATGTGAGTCGAGTAAACAAATTTTCCTAATCTTTCTGTTCAAGCGCCATCTAC
The binding signal of the first is lower: 1.01 RPM ratio (pull-down/input) for the first, 1.13 RPM ratio (pull-down/input) for the second.

Compared with “GATGATTGTTCTCCCAGCTGATGAATTGGTTAGGTCGAGTAAACAAATTTTCCTAATCTTTCTGTTCAAGCGCCATCTAC”, “GATGATTGTTCTCCCAGCTGATGAATTAAGTGTGTCGAGTAAACAAATTTTCCTAATCTTTCTGTTCAAGCGCCATCTAC” is higher in binding signal: 0.882 RPM ratio (pull-down/input) for the first, 1.14 RPM ratio (pull-down/input) for the second.

First: GATGATTGTTCTCCCAGCTGATGAATTATTACCTTCGAGTAAACAAATTTTCCTAATCTTTCTGTTCAAGCGCCATCTAC
Second: GATGATTGTTCTCCCAGCTGATGAATTCTAGCATTCGAGTAAACAAATTTTCCTAATCTTTCTGTTCAAGCGCCATCTAC
The binding signal of the first is higher: 1.17 RPM ratio (pull-down/input) for the first, 1.14 RPM ratio (pull-down/input) for the second.

First: GATGATTGTTCTCCCAGCTGATGAATTTAATGAATCGAGTAAACAAATTTTCCTAATCTTTCTGTTCAAGCGCCATCTAC
Second: GATGATTGTTCTCCCAGCTGATGAATTATTAAACTCGAGTAAACAAATTTTCCTAATCTTTCTGTTCAAGCGCCATCTAC
The binding signal of the first is lower: 0.921 RPM ratio (pull-down/input) for the first, 1.14 RPM ratio (pull-down/input) for the second.

First: GATGATTGTTCTCCCAGCTGATGAATTACGGACGTCGAGTAAACAAATTTTCCTAATCTTTCTGTTCAAGCGCCATCTAC
Second: GATGATTGTTCTCCCAGCTGATGAATTTAGTTTTTCGAGTAAACAAATTTTCCTAATCTTTCTGTTCAAGCGCCATCTAC
The binding signal of the first is lower: 0.901 RPM ratio (pull-down/input) for the first, 1.19 RPM ratio (pull-down/input) for the second.

Compared with “GATGATTGTTCTCCCAGCTGATGAATTGCAGAATTCGAGTAAACAAATTTTCCTAATCTTTCTGTTCAAGCGCCATCTAC”, “GATGATTGTTCTCCCAGCTGATGAATTTTAGTGTTCGAGTAAACAAATTTTCCTAATCTTTCTGTTCAAGCGCCATCTAC” is lower in binding signal: 1.22 RPM ratio (pull-down/input) for the first, 1.14 RPM ratio (pull-down/input) for the second.

“GATGATTGTTCTCCCAGCTGATGAATTTCAATCCTCGAGTAAACAAATTTTCCTAATCTTTCTGTTCAAGCGCCATCTAC” and “GATGATTGTTCTCCCAGCTGATGAATTAGATCCGTCGAGTAAACAAATTTTCCTAATCTTTCTGTTCAAGCGCCATCTAC” are the same in binding signal: 0.844 RPM ratio (pull-down/input) for the first, 0.844 RPM ratio (pull-down/input) for the second.

Compared with “GATGATTGTTCTCCCAGCTGATGAATTAACACCTTCGAGTAAACAAATTTTCCTAATCTTTCTGTTCAAGCGCCATCTAC”, “GATGATTGTTCTCCCAGCTGATGAATTGCTCATTTCGAGTAAACAAATTTTCCTAATCTTTCTGTTCAAGCGCCATCTAC” is higher in binding signal: 1.02 RPM ratio (pull-down/input) for the first, 1.09 RPM ratio (pull-down/input) for the second.

Going from “GATGATTGTTCTCCCAGCTGATGAATTTGAGACTTCGAGTAAACAAATTTTCCTAATCTTTCTGTTCAAGCGCCATCTAC” to “GATGATTGTTCTCCCAGCTGATGAATTAGTCCGTTCGAGTAAACAAATTTTCCTAATCTTTCTGTTCAAGCGCCATCTAC”, the binding signal rises from 0.842 RPM ratio (pull-down/input) to 0.931 RPM ratio (pull-down/input).

Going from “GATGATTGTTCTCCCAGCTGATGAATTTCCCTCTTCGAGTAAACAAATTTTCCTAATCTTTCTGTTCAAGCGCCATCTAC” to “GATGATTGTTCTCCCAGCTGATGAATTTCCCAGATCGAGTAAACAAATTTTCCTAATCTTTCTGTTCAAGCGCCATCTAC”, the binding signal falls from 0.822 RPM ratio (pull-down/input) to 0.784 RPM ratio (pull-down/input).

Going from “GATGATTGTTCTCCCAGCTGATGAATTTTATAGATCGAGTAAACAAATTTTCCTAATCTTTCTGTTCAAGCGCCATCTAC” to “GATGATTGTTCTCCCAGCTGATGAATTCTGCGGGTCGAGTAAACAAATTTTCCTAATCTTTCTGTTCAAGCGCCATCTAC”, the binding signal falls from 0.918 RPM ratio (pull-down/input) to 0.764 RPM ratio (pull-down/input).

Compared with “GATGATTGTTCTCCCAGCTGATGAATTGGTGATCTCGAGTAAACAAATTTTCCTAATCTTTCTGTTCAAGCGCCATCTAC”, “GATGATTGTTCTCCCAGCTGATGAATTGATAAACTCGAGTAAACAAATTTTCCTAATCTTTCTGTTCAAGCGCCATCTAC” is higher in binding signal: 0.939 RPM ratio (pull-down/input) for the first, 1.28 RPM ratio (pull-down/input) for the second.

Compared with “GATGATTGTTCTCCCAGCTGATGAATTGGGAGTGTCGAGTAAACAAATTTTCCTAATCTTTCTGTTCAAGCGCCATCTAC”, “GATGATTGTTCTCCCAGCTGATGAATTATTTATCTCGAGTAAACAAATTTTCCTAATCTTTCTGTTCAAGCGCCATCTAC” is higher in binding signal: 0.908 RPM ratio (pull-down/input) for the first, 1.76 RPM ratio (pull-down/input) for the second.

First: GATGATTGTTCTCCCAGCTGATGAATTTCGTCATTCGAGTAAACAAATTTTCCTAATCTTTCTGTTCAAGCGCCATCTAC
Second: GATGATTGTTCTCCCAGCTGATGAATTCAGCAAATCGAGTAAACAAATTTTCCTAATCTTTCTGTTCAAGCGCCATCTAC
The binding signal of the first is lower: 0.942 RPM ratio (pull-down/input) for the first, 1.11 RPM ratio (pull-down/input) for the second.

First: GATGATTGTTCTCCCAGCTGATGAATTCGGCCTATCGAGTAAACAAATTTTCCTAATCTTTCTGTTCAAGCGCCATCTAC
Second: GATGATTGTTCTCCCAGCTGATGAATTGCTGGGTTCGAGTAAACAAATTTTCCTAATCTTTCTGTTCAAGCGCCATCTAC
The binding signal of the first is lower: 0.817 RPM ratio (pull-down/input) for the first, 0.912 RPM ratio (pull-down/input) for the second.

Going from “GATGATTGTTCTCCCAGCTGATGAATTGCTCCTATCGAGTAAACAAATTTTCCTAATCTTTCTGTTCAAGCGCCATCTAC” to “GATGATTGTTCTCCCAGCTGATGAATTCCGCCATTCGAGTAAACAAATTTTCCTAATCTTTCTGTTCAAGCGCCATCTAC”, the binding signal falls from 1.03 RPM ratio (pull-down/input) to 0.861 RPM ratio (pull-down/input).

Compared with “GATGATTGTTCTCCCAGCTGATGAATTGAGAGTATCGAGTAAACAAATTTTCCTAATCTTTCTGTTCAAGCGCCATCTAC”, “GATGATTGTTCTCCCAGCTGATGAATTCTCCAGATCGAGTAAACAAATTTTCCTAATCTTTCTGTTCAAGCGCCATCTAC” is lower in binding signal: 0.878 RPM ratio (pull-down/input) for the first, 0.8 RPM ratio (pull-down/input) for the second.

Compared with “GATGATTGTTCTCCCAGCTGATGAATTTACATTCTCGAGTAAACAAATTTTCCTAATCTTTCTGTTCAAGCGCCATCTAC”, “GATGATTGTTCTCCCAGCTGATGAATTGTAGAATTCGAGTAAACAAATTTTCCTAATCTTTCTGTTCAAGCGCCATCTAC” is lower in binding signal: 1.39 RPM ratio (pull-down/input) for the first, 0.977 RPM ratio (pull-down/input) for the second.

Going from “GATGATTGTTCTCCCAGCTGATGAATTGTCGGTCTCGAGTAAACAAATTTTCCTAATCTTTCTGTTCAAGCGCCATCTAC” to “GATGATTGTTCTCCCAGCTGATGAATTTACAACGTCGAGTAAACAAATTTTCCTAATCTTTCTGTTCAAGCGCCATCTAC”, the binding signal rises from 0.852 RPM ratio (pull-down/input) to 1.26 RPM ratio (pull-down/input).

Reference: publication PMC12820563, “FoxP3 forms a head-to-head dimer in vivo and stabilizes its multimerization on adjacent microsatellites”
